# Source: PubChem BioAssay (NCATS)
# Several values for one entry are separate records, joined by “and”; a condition that tells them apart may be missing. Equal entries are not always repeated. The inconclusive results got no clear call from the source; some entries with a clear call stand among them for comparison. For some assays here: Potencies of inconclusive entries are left out as doubtful fits. For some assays here: A note “side channel” means that the fit belongs to a control or component signal, not to the main read-out. Activity calls are given as the source filed them. Unless noted, calls come from the whole dose curve.
# Experiments:
# [1] = molecular target: Estrogen receptor (Homo sapiens) (UniProt P03372); experiment: qHTS assay for small molecule agonists of estrogen receptor alpha signaling (AID 588514); conditions: ER-alpha-UAS-bla HEK293, beta-lactamase ratio, 18 h; activation: at 76.8 µM (top of the series), percent of full estradiol response, vehicle zero unless noted;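 note: 0% = vehicle only and 100% = reference agonist; nearly all actives have a fitted effect of over 70% in size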
# Outline: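 Efficacy is expressed against 20 nM 17-beta-estradiol (100%) and DMSO basal (0%); EC50 from Hill equation. Assay: beta-lactamase reporter in ER-alpha-UAS-bla HEK 293 cells, 18 h compound incubation, CCF4 detection.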
# [2] = molecular target: Androgen receptor (Homo sapiens) (UniProt P10275); experiment: qHTS assay for small molecule agonists of androgen receptor signaling (AID 588515; active = well fitted curve in the direction sought with a large enough effect in the signal ratio, with a control signal flat; inconclusive = small, poorly fitted or top-dose-only effect, or effect the other way, or a change in a side signal; inactive = no such curve, though single readings can be large or run the other way; the % refers to the signal ratio; note: potency is the fitted concentration of half-maximal effect); conditions: AR-UAS-bla HEK293, beta-lactamase ratio, agonist 16 h; activation: hits give high values
# Outline: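 Stimulation of an AR-responsive β-lactamase reporter in GripTite HEK293 cells was measured after 16 h compound exposure at 37 °C, via CCF4 fluorescence after 2 h RT. EC50 from Hill fits, normalized to R1881 at 30 nM.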
# [3] = molecular target: Androgen receptor (Homo sapiens) (UniProt P10275); experiment: qHTS assay for small molecule antagonists of androgen receptor signaling (AID 588516; active = well fitted curve in the direction sought with a large enough effect in the signal ratio, with a control signal flat, not every such curve was filed as active; inconclusive = small, poorly fitted or top-dose-only effect, or effect the other way, or a change in a side signal; inactive = no such curve, though single readings can be large or run the other way; the % refers to the signal ratio; note: potency is the fitted concentration of half-maximal effect); conditions: AR-UAS-bla HEK293, beta-lactamase ratio, antagonist mode, 16 h; activity change, negative = inhibition: at 76.8 µM (top of the series)
# Outline: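 Antagonist-mode qHTS: inhibition of R1881 (10 nM)-driven beta-lactamase expression in GripTite HEK 293 cells is measured after 16 h; values are Hill-derived IC50s normalized between R1881 and DMSO wells.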
# [4] = molecular target: Bile acid receptor (Homo sapiens) (UniProt Q96RI1); experiment: qHTS assay for small molecule antagonists of farnesoid X receptor signaling (AID 588526); conditions: HEK293T FXR-UAS-bla, beta-lactamase ratio, antagonist mode; activity change, negative = inhibition: at 76.7 µM (top of the series); note: % is set by controls: 0 for no effect and ±100 for the full control effect
# Outline: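 Concentration-response titrations were fitted to the Hill equation for half-maximal inhibition and maximal response, with data normalised to 50 uM chenodeoxycholic acid and DMSO control wells. Cells: FXR-UAS-bla HEK293T, dialyzed FBS.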
# [5] = molecular target: Glucocorticoid receptor (Homo sapiens) (UniProt P04150); experiment: qHTS assay for small molecule antagonists of glucocorticoid receptor signaling (AID 588533; active = well fitted inhibition curve with a large enough effect in the signal ratio, with a control signal flat, not every such curve was filed as active; inconclusive = small, poorly fitted or top-dose-only effect, or effect the other way, or a change in a side signal; the % refers to the signal ratio;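 note: cells stimulated with 2 nM dexamethasone as agonist; % is set by controls: 0 for no effect and ±100 for the full control effect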); conditions: HeLa MMTV-bla, GRE beta-lactamase ratio, antagonist mode, 18 h; activity change, negative = inhibition: at 76.8 µM (top of the series)
# [6] = molecular target: Peroxisome proliferator-activated receptor delta (Homo sapiens) (UniProt Q03181); experiment: qHTS assay for small molecule antagonists of peroxisome proliferator-activated receptor delta signaling (AID 588535; active = well fitted inhibition curve with a large enough effect in the signal ratio, with a control signal flat, not every such curve was filed as active; inconclusive = small, poorly fitted or top-dose-only effect, or effect the other way, or a change in a side signal; inactive = no such curve, though single readings can be large or run the other way; the % refers to the signal ratio); conditions: HEK293T PPARd-UAS-bla, beta-lactamase FRET ratio, 18 h; activity change, negative = inhibition: at 76.7 µM (top of the series) unless noted
# Outline: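 Inhibition of PPAR-delta response element-driven beta-lactamase expression is measured in HEK293T cells exposed to a compound titration series for 18 hrs at 37 C. Half-maximal inhibition comes from Hill equation fitting.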
# [7] = molecular target: Peroxisome proliferator-activated receptor gamma (Homo sapiens) (UniProt P37231); experiment: qHTS assay for small molecule agonists of peroxisome proliferator-activated receptor gamma signaling (AID 588536; active = well fitted curve in the direction sought with a large enough effect in the signal ratio, with a control signal flat, not every such curve was filed as active; inconclusive = small, poorly fitted or top-dose-only effect, or effect the other way, or a change in a side signal; inactive = no such curve, though single readings can be large or run the other way; the % refers to the signal ratio;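 note: 0% = DMSO basal wells and 100% = rosiglitazone at 2 µM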); conditions: HEK293 PPARg-UAS-bla, beta-lactamase ratio, 16 h; activation: at 76.7 µM (top of the series), percent of rosiglitazone response, DMSO as zero
# Outline: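 Cells were plated and held 6–6.5 h at 37 C, then compounds were added as a titration series. After a further 16 h, CCF4 dye was loaded for 2 h at room temperature and emission at 460/530 nm recorded.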
# [8] = molecular target: Thyroid hormone receptor beta (Homo sapiens) (UniProt P10828); experiment: qHTS assay for small molecule antagonists of thyroid hormone receptor beta signaling (AID 588547; active = well fitted inhibition curve with a large enough effect in the signal ratio, with a control signal flat, not every such curve was filed as active; inconclusive = small, poorly fitted or top-dose-only effect, or effect the other way, or a change in a side signal; the % refers to the signal ratio; note: potency is the fitted concentration of half-maximal effect;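 for activity change % (negative = inhibition): cells stimulated with 0.4 nM T3 agonist during compound exposure; % is set by controls: 0 for no effect and ±100 for the full control effect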); conditions: TR-UAS-bla HEK293, beta-lactamase ratio, antagonist mode, 18 h
# Outline: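 TR-UAS-bla GripTite HEK293 cells in 2% charcoal/dextran FBS medium were preincubated 4 h at 37 C, given compound (0.59 nM to 92 uM) plus 0.4 nM T3 (final) for 18 h, then CCF4 for 2 h at RT; Hill fit gave IC50.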
# [9] = molecular target: Peroxisome proliferator-activated receptor alpha (Homo sapiens) (UniProt Q07869); experiment: qHTS assay for small molecule agonists of the peroxisome proliferator-activated receptor alpha (PPARalpha) signaling pathway (AID 651778; active = well fitted curve in the direction sought with a large enough effect; inconclusive = small, poorly fitted or top-dose-only effect, or another doubt; inactive = no such curve, though single readings can be large; an effect the other way counts as inactive or inconclusive; note: potency is the fitted concentration of half-maximal effect); conditions: PathHunter PPARalpha complementation, chemiluminescence, 6 h; max response: hits give high values
# Outline: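 Cells plated at 2,000/well and held overnight at 37 C, 5% CO2, then compound added by pin tool for 6 hr; after PathHunter detection reagent and 60 min at room temperature, chemiluminescence from enzyme complementation was read.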
# [10] = molecular target: Retinoic acid receptor RXR-alpha (Homo sapiens) (UniProt P19793); experiment: qHTS assay for small molecule agonists of retinoid X receptor alpha signaling (AID 588544); conditions: HEK293T RXRa-UAS-bla, beta-lactamase reporter, 18 h; activation: at 76.7 µM (top of the series);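 note: 0% = DMSO basal wells and 100% = reference agonist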
# [11] = molecular target: Thyroid hormone receptor beta (Homo sapiens) (UniProt P10828); experiment: qHTS assay for small molecule agonists of thyroid hormone receptor beta signaling (AID 588545); conditions: TR-UAS-bla GripTite HEK 293, beta-lactamase ratio, agonist mode, 18 h; activation: at 76.7 µM, percent of T3 response, DMSO as zero
# Outline: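 Agonist-mode beta-lactamase reporter assay, HEK 293 cells, 2% charcoal/dextran FBS; cells plated 4 hrs, compound 18 hrs at 37 C, CCF4 2 hrs RT. Normalized to 10 nM T3 (100%) and DMSO (0%); Hill fit gives EC50, efficacy.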
# [12] = qHTS assay for small molecule disruptors of the mitochondrial membrane potential - 5 hr assay (AID 651755); conditions: JC-1-type ratio dye; ratio change, negative = disruption: at 92.2 µM (top of the series); note: % is set by controls: 0 for no effect and ±100 for the full control effect; nearly all actives have a fitted effect of over 40% in size
# Outline: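 Seed HepG2 overnight, add compound, incubate 5 hr at 37C and 5% CO2, stain 30 min with Mito-MPS, then measure monomer (490/535 nm) and aggregate (540/590 nm) fluorescence.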
# [13] = molecular target: Cytochrome P450 3A4 (Homo sapiens) (UniProt P08684); experiment: qHTS Assay for Inhibitors and Substrates of Cytochrome P450 3A4 (AID 884; active = well fitted curve in the direction sought with a large enough effect; inconclusive = small, poorly fitted or top-dose-only effect, or another doubt; inactive = no such curve, though single readings can be large; an effect the other way counts as inactive or inconclusive; note: % is set by controls: 0 for no effect and ±100 for the full control effect; nearly all actives have a fitted effect of over 50% in size); conditions: recombinant CYP3A4, Luciferin-PPXE luminescence; activity change, negative = inhibition: at 57.1 µM (top of the series) unless noted
# Outline: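 Luminescent readout of luciferin produced by CYP3A4 (20 nM) dealkylation of Luciferin-PPXE, 25 uM (its KM). NADPH-driven reaction ran 60 min at RT after 10 min compound preincubation; data scaled to 57 uM ketoconazole as 100% inhibition.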
# [14] = Cell Viability - LYMP1-003 - Assay at 40 hr (AID 964; active = well fitted curve in the direction sought with a large enough effect; inconclusive = small, poorly fitted or top-dose-only effect, or another doubt; inactive = no such curve, though single readings can be large; an effect the other way counts as inactive or inconclusive; note: % is set by controls: 0 for no effect and ±100 for the full control effect; nearly all actives have a fitted effect of over 60% in size); conditions: LYMP1-003 lymphoblastoid viability; at 92.2 µM (top of the series)
# Outline: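 Luminescent ATP signal (CellTiter-Glo) served as the viability read-out after 40 hr compound treatment of human lymphoblastoid LYMP1-003 cells at 37 C. Decreases in ATP were fitted with the Hill equation to give AC50.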
# [15] = Cell Viability - LYMP2-008 (AID 980; active = well fitted curve in the direction sought with a large enough effect; inconclusive = small, poorly fitted or top-dose-only effect, or another doubt; inactive = no such curve, though single readings can be large; an effect the other way counts as inactive or inconclusive;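 note: cells exposed to compound for 24 h at 37 °C; % is set by controls: 0 for no effect and ±100 for the full control effect; nearly all actives have a fitted effect of over 60% in size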)
# Outline: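 Cells seeded at 2500/well and rested 5 hr at 37 C; compounds added over a concentration range and incubated 24 hr at 37 C; CellTiter-Glo added, 30 min at room temperature; luminescence read and AC50 fitted with Hill model.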
# [16] = Cell Viability - LYMP2-010 (AID 981; active = well fitted curve in the direction sought with a large enough effect; inconclusive = small, poorly fitted or top-dose-only effect, or another doubt; inactive = no such curve, though single readings can be large; an effect the other way counts as inactive or inconclusive;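 note: cells exposed to compound for 24 hours at 37 °C; % is set by controls: 0 for no effect and ±100 for the full control effect; nearly all actives have a fitted effect of over 55% in size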)
# Outline: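 Steps: seed 2500 LYMP2-010 cells per well; incubate 5 hr at 37 C; add compound; incubate 24 hr at 37 C; add CellTiter-Glo, wait 30 min at room temperature; read luminescence. Concentration-response fitted to Hill equation for AC50.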
# [17] = Cell Viability - LYMP1-002 - Assay at 24 hr (AID 993; active = well fitted curve in the direction sought with a large enough effect; inconclusive = small, poorly fitted or top-dose-only effect, or another doubt; inactive = no such curve, though single readings can be large; an effect the other way counts as inactive or inconclusive; note: % is set by controls: 0 for no effect and ±100 for the full control effect); conditions: LYMP1-002 lymphoblastoid cells viability; at 92.2 µM (top of the series)
# Outline: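 Acute toxicity is measured as concentration-dependent loss of cellular ATP in a human lymphoblastoid line (Coriell LYMP1-002) after 24 h treatment in complete medium. ATP is quantified by luciferase luminescence and AC50 derived by Hill modelling.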
# [18] = molecular target: Peroxisome proliferator-activated receptor delta (Homo sapiens) (UniProt Q03181); experiment: qHTS assay for small molecule agonists of peroxisome proliferator-activated receptor delta signaling (AID 588534); conditions: HEK293T PPARdelta-UAS-bla, beta-lactamase ratio, 18 h; activation: at 76.7 µM (top of the series) unless noted; note: potency is the fitted concentration of half-maximal effect
# Outline: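 Agonist-mode qHTS; reporter cells, 5 hrs 37 C pre-incubation; compound titration, 18 hrs 37 C; CCF4 dye, 2 hrs RT; fluorescence read. EC50/efficacy via Hill fit.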
# [19] = molecular target: Peroxisome proliferator-activated receptor gamma (Homo sapiens) (UniProt P37231); experiment: qHTS assay for small molecule antagonists of peroxisome proliferator-activated receptor gamma signaling (AID 588537; active = well fitted inhibition curve with a large enough effect in the signal ratio, with a control signal flat, not every such curve was filed as active; inconclusive = small, poorly fitted or top-dose-only effect, or effect the other way, or a change in a side signal; the % refers to the signal ratio;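 note: reporter cells co-stimulated with 50 nM rosiglitazone agonist during compound treatment; % of control where 0% means no effect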); conditions: HEK293 PPARg-UAS-bla, beta-lactamase ratio, antagonist mode; activity, negative = inhibition: at 76.8 µM (top of the series) unless noted
# Outline: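 Compounds are tested as concentration series for inhibition of rosiglitazone-driven (50 nM) reporter expression in GeneBLAzer PPAR-gamma-UAS-bla HEK293 cells. After 16 h at 37 C, CCF4 substrate is added for 2 h at room temperature and blue/green fluorescence is measured.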
# [20] = qHTS assay for small molecule agonists of the antioxidant response element (ARE) signaling pathway (AID 651741; active = well fitted activation curve with a large enough effect in the signal ratio; inconclusive = small, poorly fitted or top-dose-only effect, or effect the other way, or a change in a side signal; the % refers to the signal ratio; note: % of control where 0% means no effect); conditions: HepG2 ARE-bla reporter, beta-lactamase FRET ratio, 16 h; activation: at 96 µM (top of the series) unless noted
# Outline: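 Reporter: beta-lactamase under ARE, stably in HepG2. Exposure: 16 h, 37 C, compounds delivered in DMSO by pin tool after 5 h cell preincubation. Readout: FRET substrate fluorescence after 2 h at RT.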
# [21] = qHTS assay for small molecule activators of the nuclear factor-kappa B (NF-kB) signaling pathway (AID 651749; active = well fitted activation curve with a large enough effect in the signal ratio; inconclusive = small, poorly fitted or top-dose-only effect, or a change in a side signal; the % refers to the signal ratio; note: potency is the fitted concentration of half-maximal effect; for activation: % of control where 0% means no effect); conditions: NF-kB-bla ME-180 cells, beta-lactamase FRET ratio, 16 h; activation: hits give high values
# Outline: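 Human ME-180 cervical cells with an NF-kB-bla construct; compounds added via 23 nL pin transfer, DMSO as vehicle; incubation 16 hr. Reporter activity measured by FRET disruption.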
# [22] = qHTS assay to identify small molecules that stimulate interleukin-8 (IL-8) secretion (AID 651758; active = well fitted activation curve with a large enough effect in the signal ratio; inconclusive = small, poorly fitted or top-dose-only effect, or effect the other way, or a change in a side signal; the % refers to the signal ratio; note: 0% is about no effect); conditions: HTRF ratio (665/615); activation: at 92.2 µM (top of the series)
# Outline: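 Quantitative HTS in THP-1 monocytic cells at 2000 cells per well, with 16 hrs compound incubation at 37 C. IL-8 in the medium was then quantified by HTRF immunoassay, read after 1-3 hrs at room temperature.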
# Tags give direction and shape of the fitted curve or compound fluorescence and quenching.
# Sequence of UniProt Q03181 (Q03181 whole entry, looked up): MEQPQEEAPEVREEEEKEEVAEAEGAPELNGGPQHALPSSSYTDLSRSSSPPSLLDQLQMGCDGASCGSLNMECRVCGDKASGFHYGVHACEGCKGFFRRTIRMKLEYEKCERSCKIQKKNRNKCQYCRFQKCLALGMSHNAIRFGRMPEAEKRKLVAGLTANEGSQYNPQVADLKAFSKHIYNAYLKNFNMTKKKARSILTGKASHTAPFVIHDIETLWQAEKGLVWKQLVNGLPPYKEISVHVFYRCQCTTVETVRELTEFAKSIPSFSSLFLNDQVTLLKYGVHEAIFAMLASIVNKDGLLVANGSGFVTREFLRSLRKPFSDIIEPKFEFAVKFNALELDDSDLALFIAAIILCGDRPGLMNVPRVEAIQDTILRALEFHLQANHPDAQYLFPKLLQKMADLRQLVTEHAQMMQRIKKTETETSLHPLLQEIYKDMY
# Sequence of UniProt P03372 (P03372 whole entry, looked up): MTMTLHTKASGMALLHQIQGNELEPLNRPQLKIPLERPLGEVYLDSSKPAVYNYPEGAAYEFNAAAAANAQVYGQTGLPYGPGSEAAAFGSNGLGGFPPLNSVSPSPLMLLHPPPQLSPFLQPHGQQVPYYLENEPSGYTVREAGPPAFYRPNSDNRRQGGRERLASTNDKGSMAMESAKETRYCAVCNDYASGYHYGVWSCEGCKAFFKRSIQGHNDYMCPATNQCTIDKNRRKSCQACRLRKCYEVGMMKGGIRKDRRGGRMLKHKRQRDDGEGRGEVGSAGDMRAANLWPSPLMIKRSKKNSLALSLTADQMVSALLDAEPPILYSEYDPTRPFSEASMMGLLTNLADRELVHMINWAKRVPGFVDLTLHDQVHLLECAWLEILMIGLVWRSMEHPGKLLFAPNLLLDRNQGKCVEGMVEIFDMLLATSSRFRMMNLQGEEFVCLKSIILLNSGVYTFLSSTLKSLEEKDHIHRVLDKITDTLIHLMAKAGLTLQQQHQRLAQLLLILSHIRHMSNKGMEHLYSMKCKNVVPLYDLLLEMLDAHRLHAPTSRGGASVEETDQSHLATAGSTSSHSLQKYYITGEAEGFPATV
# Sequence of UniProt P10828 (P10828 whole entry, looked up): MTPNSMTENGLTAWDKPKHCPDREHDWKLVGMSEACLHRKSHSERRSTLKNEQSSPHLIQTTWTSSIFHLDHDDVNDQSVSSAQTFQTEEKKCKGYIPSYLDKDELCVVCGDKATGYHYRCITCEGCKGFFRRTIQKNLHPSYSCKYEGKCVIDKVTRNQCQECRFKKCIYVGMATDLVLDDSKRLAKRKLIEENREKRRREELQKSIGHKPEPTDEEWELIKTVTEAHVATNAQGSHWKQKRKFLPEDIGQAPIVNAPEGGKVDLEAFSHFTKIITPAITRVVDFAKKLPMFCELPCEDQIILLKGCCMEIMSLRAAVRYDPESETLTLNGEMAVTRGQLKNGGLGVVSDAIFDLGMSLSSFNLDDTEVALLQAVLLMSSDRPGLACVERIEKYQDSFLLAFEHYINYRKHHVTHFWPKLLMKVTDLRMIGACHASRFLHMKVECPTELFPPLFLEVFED
# Sequence of UniProt P10275 (P10275 whole entry, looked up): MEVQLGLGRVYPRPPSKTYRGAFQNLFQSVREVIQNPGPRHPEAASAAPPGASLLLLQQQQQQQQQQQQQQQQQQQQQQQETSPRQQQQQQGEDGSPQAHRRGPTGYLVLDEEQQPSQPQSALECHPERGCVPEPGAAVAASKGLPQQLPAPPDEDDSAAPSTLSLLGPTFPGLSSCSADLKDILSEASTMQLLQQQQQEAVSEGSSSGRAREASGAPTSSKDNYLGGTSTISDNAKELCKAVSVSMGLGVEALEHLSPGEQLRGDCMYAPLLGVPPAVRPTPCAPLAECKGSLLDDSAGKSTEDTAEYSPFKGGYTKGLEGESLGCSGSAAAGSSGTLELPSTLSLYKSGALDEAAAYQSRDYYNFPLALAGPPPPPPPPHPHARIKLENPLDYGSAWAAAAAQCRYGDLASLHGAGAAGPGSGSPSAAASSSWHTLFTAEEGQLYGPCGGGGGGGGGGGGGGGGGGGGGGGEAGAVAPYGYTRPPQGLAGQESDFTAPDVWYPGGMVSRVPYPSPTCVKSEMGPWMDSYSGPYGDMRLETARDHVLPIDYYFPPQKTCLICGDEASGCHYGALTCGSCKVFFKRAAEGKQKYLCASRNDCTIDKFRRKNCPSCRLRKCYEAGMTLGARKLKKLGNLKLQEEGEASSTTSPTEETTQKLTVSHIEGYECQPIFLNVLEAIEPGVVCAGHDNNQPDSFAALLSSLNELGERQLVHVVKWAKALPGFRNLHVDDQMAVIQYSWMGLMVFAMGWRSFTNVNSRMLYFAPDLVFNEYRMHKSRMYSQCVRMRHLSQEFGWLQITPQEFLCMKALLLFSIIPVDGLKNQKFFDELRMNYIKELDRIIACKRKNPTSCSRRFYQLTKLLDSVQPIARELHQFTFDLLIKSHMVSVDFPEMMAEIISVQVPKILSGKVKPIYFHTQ
# Sequence of UniProt P19793 (P19793 whole entry, looked up): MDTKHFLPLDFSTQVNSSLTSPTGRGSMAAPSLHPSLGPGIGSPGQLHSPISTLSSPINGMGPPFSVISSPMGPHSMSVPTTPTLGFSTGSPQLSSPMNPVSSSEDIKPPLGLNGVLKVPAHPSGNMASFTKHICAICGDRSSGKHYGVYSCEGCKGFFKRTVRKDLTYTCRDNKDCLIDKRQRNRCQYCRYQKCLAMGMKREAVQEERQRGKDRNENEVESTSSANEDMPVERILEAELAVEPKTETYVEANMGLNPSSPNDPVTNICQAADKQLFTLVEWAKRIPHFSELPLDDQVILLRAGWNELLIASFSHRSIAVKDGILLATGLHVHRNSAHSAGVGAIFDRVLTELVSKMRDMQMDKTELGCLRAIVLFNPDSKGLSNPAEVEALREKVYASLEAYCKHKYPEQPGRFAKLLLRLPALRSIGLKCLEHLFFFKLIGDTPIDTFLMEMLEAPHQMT
# Sequence of UniProt P08684 (P08684 whole entry, looked up): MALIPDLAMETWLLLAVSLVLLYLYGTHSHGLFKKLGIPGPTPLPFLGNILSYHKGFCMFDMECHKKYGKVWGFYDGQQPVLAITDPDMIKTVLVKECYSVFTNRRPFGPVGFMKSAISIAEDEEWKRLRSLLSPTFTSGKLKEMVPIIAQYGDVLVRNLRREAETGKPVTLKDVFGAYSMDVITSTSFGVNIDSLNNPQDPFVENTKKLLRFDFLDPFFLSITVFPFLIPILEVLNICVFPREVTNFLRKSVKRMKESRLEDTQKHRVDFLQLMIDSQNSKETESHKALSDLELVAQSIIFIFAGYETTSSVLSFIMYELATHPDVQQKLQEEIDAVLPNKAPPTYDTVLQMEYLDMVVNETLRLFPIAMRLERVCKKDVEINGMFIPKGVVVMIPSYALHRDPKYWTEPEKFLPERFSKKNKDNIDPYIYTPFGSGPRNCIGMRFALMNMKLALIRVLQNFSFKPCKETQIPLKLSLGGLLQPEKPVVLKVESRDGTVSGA
# Sequence of UniProt P04150 (P04150 whole entry, looked up): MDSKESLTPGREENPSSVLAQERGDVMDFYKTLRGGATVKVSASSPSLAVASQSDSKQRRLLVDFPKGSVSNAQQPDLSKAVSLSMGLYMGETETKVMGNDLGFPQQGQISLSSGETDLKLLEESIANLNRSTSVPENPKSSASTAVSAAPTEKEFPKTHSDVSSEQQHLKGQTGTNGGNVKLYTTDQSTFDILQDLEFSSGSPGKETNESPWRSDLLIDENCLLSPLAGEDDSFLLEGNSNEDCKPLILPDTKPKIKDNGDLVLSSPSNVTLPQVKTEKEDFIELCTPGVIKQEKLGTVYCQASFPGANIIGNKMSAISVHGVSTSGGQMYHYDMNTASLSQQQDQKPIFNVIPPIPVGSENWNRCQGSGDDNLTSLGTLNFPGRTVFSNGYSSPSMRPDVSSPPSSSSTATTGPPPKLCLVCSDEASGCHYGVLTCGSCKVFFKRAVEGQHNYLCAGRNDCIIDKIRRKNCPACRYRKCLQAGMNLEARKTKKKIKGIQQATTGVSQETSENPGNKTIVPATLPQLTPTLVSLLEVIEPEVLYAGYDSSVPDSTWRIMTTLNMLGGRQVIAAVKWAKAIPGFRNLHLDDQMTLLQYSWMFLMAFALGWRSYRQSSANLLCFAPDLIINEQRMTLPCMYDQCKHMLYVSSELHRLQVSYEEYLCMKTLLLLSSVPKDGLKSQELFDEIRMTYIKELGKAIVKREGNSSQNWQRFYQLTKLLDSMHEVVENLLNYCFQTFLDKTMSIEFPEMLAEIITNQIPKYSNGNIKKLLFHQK
# Sequence of UniProt Q07869 (Q07869 whole entry, looked up): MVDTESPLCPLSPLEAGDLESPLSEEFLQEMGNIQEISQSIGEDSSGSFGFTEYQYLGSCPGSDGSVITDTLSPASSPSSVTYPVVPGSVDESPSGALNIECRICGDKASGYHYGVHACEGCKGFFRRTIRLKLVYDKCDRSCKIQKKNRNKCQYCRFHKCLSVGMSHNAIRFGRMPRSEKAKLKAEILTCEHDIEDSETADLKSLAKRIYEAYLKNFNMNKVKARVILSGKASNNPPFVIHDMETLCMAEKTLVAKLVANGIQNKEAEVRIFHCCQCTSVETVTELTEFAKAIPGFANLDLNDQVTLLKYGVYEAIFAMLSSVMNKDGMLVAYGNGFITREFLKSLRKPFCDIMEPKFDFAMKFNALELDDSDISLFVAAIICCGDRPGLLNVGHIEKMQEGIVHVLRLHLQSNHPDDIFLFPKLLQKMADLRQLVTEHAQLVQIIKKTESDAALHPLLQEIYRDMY
smiles,measurement,setting,value
COC(=O)c1ccc(CNS(C)(=O)=O)cc1S(=O)(=O)NC(=O)Nc1nc(OC)cc(OC)n1,activation,[1],inconclusive: -14.3%
same,Potency,[2],"inconclusive [cytotoxic, side channel, single point]"
same,Potency,[3],"inconclusive [inhibitor, full curve, poor fit]"
same,"activity change, negative = inhibition",[4],inconclusive: -14.2%
same,Potency,[5],inactive
same,"activity change, negative = inhibition",[6],inconclusive: -20.1%
same,activation,[7],inconclusive: 21.2%
same,activity change % (negative = inhibition),[8],inconclusive: -8.41%
same,Potency,[9],"inconclusive [activator, single point]"
C=CCOC(=O)c1ccccc1C(=O)OCC=C,activation,[1],inconclusive: 5.48%
same,"activity change, negative = inhibition",[4],inconclusive: -18%
same,Potency,[7],inactive
same,Potency,[10],inactive
same,activation,[11],inactive: -11.7% and inactive: -2.2%
same,Potency,[12],inactive
COC(=O)c1ccc(C=O)cc1,Potency,[13],inactive
same,"activity change, negative = cytotoxic",[14],inactive: -2.36%
same,Potency,[15],inactive
same,Potency,[16],inactive
same,"activity change, negative = cytotoxicity",[17],inactive: 1.37%
same,activation,[1],inconclusive: 68.7%
same,Potency,[18],"inconclusive [side channel, falling, full curve, poor fit]"
same,Potency,[6],inactive
same,Potency,[19],inactive
same,Potency,[8],"inconclusive [cytotoxic, side channel, full curve, poor fit]"
same,Potency,[20],inactive
same,Potency,[21],"inconclusive [activator, single point]"
same,activation,[21],inactive: -1.54%
same,activation,[22],inconclusive: -17.9%
